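1) Cells in 96-well plates. 2) Compound, 48 h, 5 concentrations. 3) Linear interpolation between surrounding doses. 4) Unreached endpoint = highest concentration. GI50 marks 50% less growth.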 For part of its entries the source gives two or more results. They are shown here; other results are not. There may be further records. For some assays here: Records of one sample usually come from different ranges of test concentrations, not given here; a value can be the end of its range. For some assays here: The values listed for one entry are repeated measurements across runs, samples, wells, individuals or studies. Records carry a tag for their origin. The letters are not those of the source and start again with each entry.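 TGI: total growth inhibition.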
What was measured:
Test in all cases: growth of human tumour cells (NCI), 48 h
K-562 leukemia = test system: K-562 leukemia
SR leukemia = test system: SR leukemia
OVCAR-8 ovarian = test system: OVCAR-8 ovarian
LXFL 529 NSCLC = test system: LXFL 529 NSCLC
SNB-19 CNS = test system: SNB-19 CNS
HOP-92 NSCLC = test system: HOP-92 NSCLC
786-0 renal = test system: 786-0 renal
MOLT-4 leukemia = test system: MOLT-4 leukemia
SF-295 CNS = test system: SF-295 CNS
NCI/ADR-RES ovarian = test system: NCI/ADR-RES ovarian
RPMI-8226 leukemia = test system: RPMI-8226 leukemia
UACC-62 melanoma = test system: UACC-62 melanoma
CAKI-1 renal = test system: CAKI-1 renal
SW-620 colon = test system: SW-620 colon
KM12 colon = test system: KM12 colon
HCT-15 colon = test system: HCT-15 colon
MCF7 breast = test system: MCF7 breast
BT-549 breast = test system: BT-549 breast
MALME-3M melanoma = test system: MALME-3M melanoma
SK-MEL-2 melanoma = test system: SK-MEL-2 melanoma
A498 renal = test system: A498 renal
COLO 205 colon = test system: COLO 205 colon
UACC-257 melanoma = test system: UACC-257 melanoma
MDA-MB-231 breast = test system: MDA-MB-231 breast
UO-31 renal = test system: UO-31 renal
T-47D breast = test system: T-47D breast
HCT-116 colon = test system: HCT-116 colon
CCRF-CEM leukemia = test system: CCRF-CEM leukemia
DU-145 prostate = test system: DU-145 prostate
OVCAR-3 ovarian = test system: OVCAR-3 ovarian
OVCAR-4 ovarian = test system: OVCAR-4 ovarian
SK-MEL-5 melanoma = test system: SK-MEL-5 melanoma

For `CC[C@H]1CN2CCc3cc(OC)c(OC)cc3[C@@H]2C[C@@H]1C[C@H]1NCCc2c1[nH]c1ccc(O)cc21`, the TGI (K-562 leukemia) was 160 nM and 4.05 µM, the TGI (SR leukemia) was 214 nM and 2.6 µM and the TGI (OVCAR-8 ovarian) was 234 nM, 2.43 µM, 65.3 nM. For the same compound, the TGI (LXFL 529 NSCLC) was 86.2 nM, 56.3 nM, 1.49 µM, the TGI (SNB-19 CNS) was 67.3 nM, 8.81 µM, 33.8 nM and the TGI (HOP-92 NSCLC) was 74.1 nM, 378 nM, < 13.3 nM. For the same compound, the TGI (786-0 renal) was 73.9 nM, 274 nM, 775 nM, the TGI (MOLT-4 leukemia) was 215 nM, 5.61 µM, 2.3 µM and the TGI (SF-295 CNS) was 132 nM, 5.57 µM, 278 nM. For the same compound, the TGI (NCI/ADR-RES ovarian) was 35.2 nM and 13.3 µM, the TGI (RPMI-8226 leukemia) was 77.9 nM, 87.6 nM, 3.29 µM and the TGI (UACC-62 melanoma) was 61.9 nM, 843 nM, 77.3 nM. The GI50 (CAKI-1 renal) was 2.61 µM [1 test] and 47.7 nM [mean of 2 tests] and 36.8 nM [mean of 3 tests] and the TGI (SW-620 colon) was 72.9 nM, 154 nM, 1.67 µM.

`O=C(c1ccc(/C=C/c2n[nH]c3ccccc23)cc1)N1CCNCC1` was tested, and the GI50 (KM12 colon) was 4.06 µM [sample A, 1 test] and 69 nM [sample B, mean of 2 tests], the TGI (HCT-15 colon) was 3.2 µM [sample A, 1 test] and 40.5 µM [sample B, mean of 2 tests] and the GI50 (MCF7 breast) was 1 nM [sample A, 1 test] and 1.49 µM [sample B, 1 test].

For `CC(=O)Oc1ccccc1C(=O)Nc1ncc([N+](=O)[O-])s1`, the TGI (KM12 colon) was > 100 µM [sample A] and 9.44 µM [sample B], the TGI (786-0 renal) was > 100 µM [sample A] and 8.92 µM [sample B] and the TGI (BT-549 breast) was 69.6 µM [sample A] and 6.03 µM [sample B]. For the same compound, the TGI (MALME-3M melanoma) was > 75.8 µM [sample A] and 5.16 µM [sample B], the TGI (MOLT-4 leukemia) was > 100 µM [sample A] and 7.76 µM [sample B] and the TGI (SF-295 CNS) was 52.3 µM [sample A] and 5.13 µM [sample B]. The TGI (SK-MEL-2 melanoma) was 56.6 µM [sample A] and 5.08 µM [sample B], the TGI (A498 renal) was > 100 µM [sample A] and 1.86 µM [sample B] and the TGI (COLO 205 colon) was 38.6 µM [sample A] and 3.23 µM [sample B]. For the same compound, the TGI (UACC-257 melanoma) was > 84.9 µM [sample A] and 5.45 µM [sample B], the TGI (MDA-MB-231 breast) was > 91.3 µM [sample A] and 6.82 µM [sample B] and the TGI (UO-31 renal) was > 100 µM [sample A] and 6.67 µM [sample B].

With `CN1C(=O)/C(=C/c2c(Cl)n(C)c3ccccc23)c2ccccc21` the GI50 (T-47D breast) was 5.52 µM and 254 nM, the GI50 (HCT-116 colon) was 3.68 µM and 346 nM and the GI50 (CCRF-CEM leukemia) was 2.91 µM and 169 nM.

In the case of `COC(=O)[C@@H](C)C[C@H](Cc1ccccc1)NC(=O)c1csc([C@@H](C[C@H](C(C)C)N(C)C(=O)[C@@H](NC(=O)[C@H]2CCCCN2C)C2CCCCC2)OC(C)=O)n1`, the TGI (DU-145 prostate) is reported as 23.8 nM and > 25 µM, the GI50 (OVCAR-3 ovarian) is reported as < 0.1 nM and 2.5 nM and the TGI (OVCAR-3 ovarian) is reported as 0.712 nM and > 25 µM. For the same compound, the TGI (BT-549 breast) was 68.5 nM and 5.38 nM, the TGI (A498 renal) was 0.9 nM and 85.9 nM and the GI50 (OVCAR-4 ovarian) was 0.788 nM and 849 nM. The TGI (MDA-MB-231 breast) was 818 nM and 7.73 nM, the GI50 (SK-MEL-5 melanoma) was 0.134 nM and 2.5 nM and the GI50 (MCF7 breast) was < 0.1 nM and 2.5 nM.

Source: PubChem BioAssay (NCI)
